Assay results published in PubChem BioAssay AID504832 (National Center for Advancing Translational Sciences (NCATS), 2011).
The campaign covered roughly 310,000 compounds. About 18,000 (5.8%) were called active. The inconclusive results got no clear call from the source; some entries with a clear call stand among them for comparison. Calls follow the shape of the dose curve; as a rule, active = well fitted inhibition curve with a large enough effect; inconclusive = small, poorly fitted or top-dose-only effect, or another doubt; inactive = no such curve, though single readings can be large or run the other way. Potencies of inconclusive entries are left out as doubtful fits.

Experiment: Primary qHTS for delayed death inhibitors of the malarial parasite plastid, 48 hour incubation
Conditions: P. falciparum luciferase growth in erythrocytes; series mostly up to 28.7 µM
Method in brief: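 Luciferase-expressing parasites in RBCs, 2% Hct / 0.1% parasitemia final; RPMI 1640 + 0.5% Albumax; 37 C, 5% CO2, one generation; luminescence read-out, lower signal = inhibition.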
Potency is read from the fitted curve at half-maximal effect; tags tell the direction and shape of the fitted curve.

Compound	Potency
N#Cc1c(NCc2ccccc2)ccnc1NCc1cccnc1	inconclusive [inhibitor, single point]
COc1ccc(OC)c(NC(=O)NNS(=O)(=O)c2ccc(C)cc2C)c1	inactive
CCCCn1c(N)c(N(CC(C)C)C(=O)c2cccc(S(=O)(=O)N(C)c3ccccc3)c2)c(=O)[nH]c1=O	inconclusive [inhibitor, partial curve, poor fit]
CC(C)(C)OC(=O)C1C(=O)CC(C)(O)C(C(=O)OC(C)(C)C)C1c1ccco1 (configuration not stated)	inconclusive [inhibitor, partial curve]
CN1CCN(CCCNC(=O)c2ccc(/C=C3/Sc4ccccc4N(Cc4cccc(Cl)c4)C3=O)cc2)CC1	inconclusive [inhibitor, single point]
COc1ccc(-c2ccc(-c3nc4ccc(C)cn4c3NC3CCCCC3)cc2OC)cc1	active: 11.7 µM
COc1ccccc1C(=O)NC(=O)COC(=O)CCOc1cc(C)ccc1C	inconclusive [inhibitor, full curve, poor fit]
O=C(COc1ccc(S(=O)(=O)N2CCOCC2)cc1)NCC1CCCO1 (configuration not stated)	inconclusive [inhibitor, full curve, poor fit]
CCCn1nc(C(=O)NC2CCCc3ccccc32)c2ccccc2c1=O (configuration not stated)	inconclusive [inhibitor, single point]
COc1ccc(C(=O)NN/C(C)=C/C(=O)c2ccccc2)cc1	inconclusive [inhibitor, single point]
O=c1c2c(-c3ccco3)csc2nc(SCc2cn3cccnc3n2)n1-c1ccccc1	active: 7.38 µM
CC(C)C[C@H](NC(=O)c1nc[nH]c1C(=O)NC1CCNCC1)C(=O)OCc1ccccc1	inconclusive [inhibitor, single point]
O=[N+]([O-])c1cccc(/C=N/Nc2nc(NCc3ccccc3)nc(N3CCOCC3)n2)c1	inconclusive [inhibitor, single point]
COc1ccc(-c2nnc(CSc3nnc(-c4ccncc4)n3C3CCCCC3)o2)cc1OC	inconclusive [inhibitor, single point]
C=CCc1ccccc1OCC(O)CNC(=O)c1ccccc1C(=O)O (configuration not stated)	inactive
CCOC(=O)CSc1nc2c(c(=O)[nH]1)C(C)(CC)Cc1ccccc1-2 (configuration not stated)	inactive
COc1ccc(CC(=O)Nc2ccc(OC)nc2)cc1	inactive
COc1cc(C(=O)Nc2ccc(Br)cc2C(=O)c2cc(OC)c(OC)c(OC)c2)cc(OC)c1OC	inconclusive [inhibitor, partial curve]
CN(CP(=O)(O)CN(C)S(C)(=O)=O)S(C)(=O)=O	inconclusive [inhibitor, single point]
O=C(COc1ccccc1F)NNC(=O)c1cccc(-n2cccc2)c1	inactive
CC(=O)N1CCN(c2ccccc2NC(=O)c2ccc(Br)o2)CC1	inactive
CC(=O)ON1C(C)(C)CC(OC(=O)c2ccccc2)CC1(C)C	inconclusive [inhibitor, single point]
Cc1ccc(NC(=O)CSc2nc3c(cc2C#N)C(=O)CCC3)cc1S(=O)(=O)N(C)C	inconclusive [inhibitor, partial curve, poor fit]
CCN(CC)CCC(c1ccc(N(C)C)cc1)c1c(OC)cc(OC)c2ccc(=O)oc12 (configuration not stated)	active: 11.7 µM

Compound	Potency
Cc1ccc(CNC(=O)Cn2cnc(S(=O)(=O)N3CCC(C)CC3)c2)o1	inactive
COc1ccc(CCNS(=O)(=O)c2ccc(OC)cc2)cc1	inactive
COc1ccccc1C(=O)COC(=O)CCCN=C1NS(=O)(=O)c2ccccc21	inconclusive [inhibitor, single point]
CCCCn1c(CNC(=O)C23CC4CC(CC(C4)C2)C3)nnc1SC(C)CC (configuration not stated)	active: 10.4 µM
Cc1ccc2ccc(S(=O)(=O)NCc3ccccn3)cc2c1	inactive
COc1cccc(NC(=O)C(C)SCc2ccccc2)c1 (configuration not stated)	inactive
COc1cc(C(=O)N2CCC(NC(=O)C(Cc3ccc(C(C)C)cc3)NC(C)=O)CC2)cc(OC)c1OC (configuration not stated)	inconclusive [inhibitor, partial curve, poor fit]
CC(C)(O)C(=O)N/N=C\c1ccc(OC/C=C/c2ccccc2)cc1	inactive
CCOC(=O)NC(c1ccc(C(C)C)cc1)C(Cl)(Cl)Cl (configuration not stated)	inconclusive [inhibitor, single point]
COc1ccc(CNC(=O)COC(=O)c2ccc(Br)cc2)cc1	inactive
COc1ccc(Cl)cc1NC(=O)C(C)Sc1nnc(C2CC2)n1C1CC1 (configuration not stated)	inconclusive [inhibitor, single point]
CSc1nsc(SCc2ccc(Cl)cc2)n1	inactive
CC(=O)Cc1nsc(NC(=O)c2ccc(-c3cccc(C(F)(F)F)c3)o2)n1	inactive
CCOC(=O)C1CCN(Cc2cnc(Oc3ccc(C(C)(C)C)cc3)s2)CC1	inconclusive [inhibitor, single point]
CCOC(=O)C1=C(C)N=C2c3ccccc3C(=O)C2C1c1ccc(Br)cc1 (configuration not stated)	active: 9.28 µM
Cc1ccc(C(=O)NC2CCN(CC(=O)Nc3ccccc3Cl)CC2)cc1	inactive
CCN(CC(=O)Nc1ccc(NC(C)=O)cc1)C(=O)c1cccc2ccccc12	inactive
O=C(Nc1ccc(F)cc1)c1cn(-c2ccccc2)nc1-c1ccncc1	inconclusive [inhibitor, single point]
Cc1nnsc1C(=O)Nc1cccc(Cl)c1	inactive
CC[C@H](C)[C@H](N)C1=N[C@H](C(=O)N[C@@H](CC(C)C)C(=O)N[C@@H](CCC(=O)O)C(=O)N[C@@H](C(=O)N[C@H]2CCCCNC(=O)[C@@H](CC(N)=O)NC(=O)[C@@H](CC(=O)O)NC(=O)[C@@H](Cc3cnc[nH]3)NC(=O)[C@@H](Cc3ccccc3)NC(=O)[C@@H]([C@@H](C)CC)NC(=O)[C@@H](CCCN)NC2=O)[C@@H](C)CC)CS1	inactive
O=C1c2ccccc2C(=O)N1CCCCSc1nc2ccccc2c(=O)n1CCCN1CCOCC1	inconclusive [inhibitor, single point]
Cn1c(SCC(=O)NC2CC2)nnc1-c1ccc(Cl)cc1	inactive
CC(C)c1ccccc1-n1c(-c2cccnc2)n[nH]c1=S	inconclusive [inhibitor, partial curve]
O=C(Nc1ccccc1)C1=C[C@@H](c2ccc(Br)cc2)C[C@@H](OCCCCO)O1	inconclusive [inhibitor, partial curve, poor fit]

Compound	Potency
Cc1ccc(C)c(N(CC(=O)NC(C)(C)C)C(=O)CNC(=O)c2cccs2)c1	inactive
O=C(Cn1nc(-c2nn(CC(=O)c3ccccc3)c3[n+]2CCCCC3)[n+]2c1CCCCC2)c1ccccc1	inconclusive [inhibitor, single point]
CCc1cccc(C)c1NC(=O)CCCN1C(=O)CN(C)C1=O	inactive
CN(CC(=O)Nc1ccc(F)c(F)c1F)C(=O)Cn1cnc2c1c(=O)n(C)c(=O)n2C	inactive
Cn1nccc1C(=O)Nc1sc2c(c1C#N)CCCC2	inactive
CCOC(=O)c1c(C)n(Cc2ccc3c(c2)OCO3)c2ccc(O)cc12	inactive
Cc1cc(NC(=S)Nc2cccnc2)ccc1Br	inactive
C=C(CC[C@@H](C)[C@H]1CCC2[C@]1(C)CC[C@]13C[C@@]14CCC(OC(=O)/C=C/c1ccc(O)c(OC)c1)C(C)(C)[C@@H]4CC[C@@]23C)C(C)C (some centres not stated)	inactive
O=C1C2C3C=CC(C3)C2C(=O)N1CNc1ccc(O)cc1 (configuration not stated)	inactive
COc1ccc(OC)c(S(=O)(=O)N2CCc3ccccc32)c1	inconclusive [inhibitor, partial curve, poor fit]
CCOc1ccc(/C=C/C(O)=C2/C(=O)N(C)C3(C)CC2c2ccccc2O3)cc1OC (configuration not stated)	active: 6.57 µM
COC(=O)C1=C(c2ccc(F)cc2OCc2ccccc2)C[C@@H]2CC[C@H]1N2C(=O)N1CCCCC1	inconclusive [inhibitor, partial curve]
CCOC(=O)C1CCN(c2ncnc3c2cnn3-c2ccc(OC)cc2)CC1	inactive
Cc1cccc(Nc2ccc(S(=O)(=O)N3CCOCC3)cc2[N+](=O)[O-])c1	inactive
COc1ccc(-n2c(C)cc(/C=C(\C#N)C(=O)NCc3ccco3)c2C)cc1	active: 4.65 µM
Cc1ccc(Sc2nc([N+](=O)[O-])nn2C)cc1	inactive
O=C(Cn1cc(C(F)(F)F)cc(Cl)c1=O)Nc1cccc(S(=O)(=O)N2CCCCC2)c1	inconclusive [inhibitor, single point]
COc1ccc(-c2nn(-c3ccccc3)cc2C(=O)N(C)CC(=O)Nc2ccc(N3CCOCC3)cc2)cc1	inconclusive [inhibitor, partial curve]
COc1ccc(-c2nc3ccc(C)cc3c(=O)o2)cc1OC	inactive
Cc1cccc(N2C(=O)CN(Cc3sccc3C)C2=S)c1	inconclusive [inhibitor, partial curve]
CC(=O)c1cccc(NC(=S)N2CCC(Cc3ccccc3)CC2)c1	inconclusive [inhibitor, partial curve, poor fit]
CC(=O)NC(NC(=S)Nc1ccc(N=Nc2ccccc2)cc1)C(Cl)(Cl)Cl (configuration not stated)	active: 11.7 µM
Cc1cccc(NC(=O)C23CCC(C)(C2Br)C3(C)C)c1 (configuration not stated)	inactive
Cn1c(COc2ccccc2)nnc1SCC(=O)Nc1ccc(N2CCOCC2)c(Cl)c1	inconclusive [inhibitor, single point]
